Hit rate of the full screen: of about 310,000 compounds, about 14,000 (4.5%) showed an effect of 50% or more. Effects have a minus sign here. The list shows a part of the results.
target: human ether-à-go-go-related gene (hERG) potassium channel (human, UniProt Q12809); assay: primary screen, population patch clamp on CHO cells stably expressing hERG
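Note: peak tail current of the secondary pulse compared with the same well before compound.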

Chain of human ether-à-go-go-related gene (hERG) potassium channel (Q12809 whole entry, looked up): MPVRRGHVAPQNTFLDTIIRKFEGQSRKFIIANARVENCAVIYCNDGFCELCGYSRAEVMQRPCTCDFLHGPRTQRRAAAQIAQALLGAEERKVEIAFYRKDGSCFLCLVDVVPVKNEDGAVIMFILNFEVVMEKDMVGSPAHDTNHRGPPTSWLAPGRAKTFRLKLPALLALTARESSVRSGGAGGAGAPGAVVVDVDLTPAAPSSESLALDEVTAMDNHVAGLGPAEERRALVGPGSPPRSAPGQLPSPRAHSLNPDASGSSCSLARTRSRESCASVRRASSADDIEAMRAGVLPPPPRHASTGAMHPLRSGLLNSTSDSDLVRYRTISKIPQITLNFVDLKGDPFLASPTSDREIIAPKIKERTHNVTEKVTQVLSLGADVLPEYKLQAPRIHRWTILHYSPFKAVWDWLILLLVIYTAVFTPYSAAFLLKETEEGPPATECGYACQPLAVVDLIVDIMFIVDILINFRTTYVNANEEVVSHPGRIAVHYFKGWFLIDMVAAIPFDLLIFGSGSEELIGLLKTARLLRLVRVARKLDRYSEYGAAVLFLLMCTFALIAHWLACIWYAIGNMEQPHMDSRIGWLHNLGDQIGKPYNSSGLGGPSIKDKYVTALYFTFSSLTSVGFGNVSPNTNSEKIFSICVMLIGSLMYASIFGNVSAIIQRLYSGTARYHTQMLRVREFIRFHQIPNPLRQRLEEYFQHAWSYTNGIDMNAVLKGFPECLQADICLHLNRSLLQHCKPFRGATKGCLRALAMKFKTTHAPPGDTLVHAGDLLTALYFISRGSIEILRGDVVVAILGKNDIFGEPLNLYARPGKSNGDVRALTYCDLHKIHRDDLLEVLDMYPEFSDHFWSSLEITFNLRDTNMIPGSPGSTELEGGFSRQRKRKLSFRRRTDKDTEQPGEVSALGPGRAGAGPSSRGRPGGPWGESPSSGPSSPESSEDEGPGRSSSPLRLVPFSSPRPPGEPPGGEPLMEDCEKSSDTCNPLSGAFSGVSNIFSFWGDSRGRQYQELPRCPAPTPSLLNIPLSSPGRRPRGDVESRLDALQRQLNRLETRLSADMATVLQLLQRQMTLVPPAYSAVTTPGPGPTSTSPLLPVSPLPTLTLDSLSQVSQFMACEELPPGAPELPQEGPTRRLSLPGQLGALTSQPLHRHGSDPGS

Row | SMILES | hERG current change (%, negative = inhibition) at 10uM
1 | CCCc1cc(=O)[nH]c(SCC(=O)N2CCc3ccccc3C2)n1 | -4.59%
2 | Cc1noc(C)c1S(=O)(=O)N1CCC(C(=O)Nc2ccc(Br)cc2)CC1 | 5.84%
3 | CC(=O)Nc1ccc(/C(C)=N/Nc2nc(Nc3ccccc3)nc(N3CCOCC3)n2)cc1 | -2.38%
4 | CC(=O)Nc1ccc(NC(=O)c2ccc(CSc3ccccc3)o2)cc1 | 17%
5 | O=C(O)Cn1cc(/C=C/[N+](=O)[O-])c2ccccc21 | 24.2%
6 | CC(=O)c1c(O)cc(=O)n(-c2ccccc2)c1-c1ccc(Cl)cc1 | 22%
7 | CSCCC(NS(=O)(=O)c1ccc2c(c1)c(=O)n(C)c(=O)n2C)C(=O)NC1CCN(Cc2ccccc2)CC1 (stereo not drawn) | -14.5%
8 | COc1ccc(Cc2nc3ccc(C(=O)N4CCCC4)cc3o2)cc1OC | 12.8%
9 | Cc1ccc(C)c(NC(=O)CSc2nc(C)cs2)c1 | 1.23%
10 | O=C(NCc1ccccc1F)C1CCN(S(=O)(=O)c2ccccc2)CC1 | -12.1%
11 | O=C(NCc1ccccn1)C(=O)Nc1ccccc1 | -2.8%
12 | CC(=O)Nc1sc(N/N=C/c2ccc(O)cc2)nc1-c1ccc(C)cc1 | 11%
13 | Cc1ccc(S(=O)(=O)N(Cc2c(F)cccc2Cl)C(=O)N2CCN(C)CC2)cc1 | -1.1%
14 | Cc1ccccc1NC(=O)c1cc2c(C)nc3ccccc3c2o1 | 5.86%
15 | O=C(NCC(c1ccco1)N1CCN(c2ccccc2F)CC1)c1ccco1 (stereo not drawn) | -2.63%
16 | COc1ccccc1C(=O)NCCC(=O)N1CC(=O)Nc2ccccc21 | 14.3%
17 | Fc1ccc(NC(=S)Nc2cc(-c3ccccc3)[nH]n2)cc1Cl | 5.06%
18 | CCN(CC)c1ccc(C=NCCNS(=O)(=O)c2ccc(C)cc2)cc1 | 24.6%
19 | COc1ccc(/C=C2/C(=O)ON=C2C)cc1Br | 20.1%
20 | Cc1ccc(S(=O)(=O)NNC(=O)c2cnn(-c3ccccc3)c2-n2cccc2)cc1 | -15%
21 | COC(=O)C1Sc2[nH]c(=O)sc2C2c3ccccc3OC(=O)C12 (stereo not drawn) | -22.6%
22 | CC(=O)Nc1ccc(NC(=O)c2cc(S(=O)(=O)N3CCCCC3)ccc2C)cc1 | 5.45%
23 | Cc1cc(OCC(=O)Nc2c(C)n(C)n(-c3ccccc3)c2=O)ccc1[N+](=O)[O-] | -23.5%
24 | Cc1nc2ccc(C(=O)NCc3ccc4c(c3)OCO4)cc2s1 | 16.8%

— paper PMC4336329 (PLoS ONE, 2015)
